According to patent US12551573B2, “Compositions and methods for the targeting of PCSK9” (Scribe Therapeutics Inc., priority 2022, dated 2026):
Like-named read-outs stand apart in the source and are kept apart here.

B1: DOMAIN_11132 (protein, listed as Bos indicus)
chain: TLESVTFQDVAVDFTQEEWALLDTSQRTLFREVMLENISHLVSVGNQLYKSDVISHLEQGEQLSREGLGFLQGQSPVISDR
B2: DOMAIN_11158 (protein, listed as Chrysochloris asiatica)
chain: MLAPVTFEDVTVVFTEAEWVTLSTEQKNLYKEVTLETYRNLLSLAEPTPETYPGPSCLLPFSCQQFLSQHVLQIFPGVCAE
B3: DOMAIN_11162 (protein, listed as Mandrillus leucophaeus)
chain: FQGSISFKDVTVGFSQEEWQHLNPSQRALYRDVMLENYSNLVSVGYCVHKPEVISRLEQGEEPWRLEEEFPSQSFSEVWTA
B4: DOMAIN_11178 (protein, listed as Sus scrofa)
chain: MAFRDVAVAFSQKEWKLLSPAQRTLYRDVMLENYSLLVSLGIAFPKPKLITQLEQGDEPWREESECFLDLYSEPRTEFQPC
B5: DOMAIN_12631 (protein, listed as Macaca fascicularis)
chain: SQESVAFEDVAVYFTTKEWAIMVPAERALYRDVMLENYEAVAFVVPPTSKPALVSHLEQGKESCFIRPQGVLSRSDWRAGL
B6: DOMAIN_11204 (protein)
chain: SVAFEDVAVNFTQEEWALLSPSQKNLYRDVMLETFRNLASVGIQWKDQNIENLYQNLGIKLRSLVERLCGPQEGSEHRETF
modifications: Nomascus leucogenys
B7: DOMAIN_11225 (protein, listed as Capra hircus)
chain: IKSPLTFGDVAVEFSGEEWAWLDSAQRSLHRSVMLENYRNLASLGLCLSKPEMISSLEQRKEPWAVKRKSTSGKCPDLQTL
B8: DOMAIN_11227 (protein, listed as Capra hircus)
chain: SQVSVTFEDVAVLFTRDEWRKLAPSQRNLYQDVMLENYSNLVSLGLPFSKPEVISLLQQGEDPWKVEKESPGGSSLGEWSS
B9: DOMAIN_11282 (protein, listed as Suricata suricatta)
chain: KPGAVSFADVAVYFSPEEWGCLRPAQRALYRDVMRETYGHLGALGFPGPKPALISWMEQESEESEAWSPAAKDPEEGESLG
B10: DOMAIN_11289 (protein, listed as Suricata suricatta)
chain: THGLVMFKDVAIDVSQEEWECLNPTQRSLYRDVMLENYSNLVSLGLSLSKPAVISSLEQGMEPWMVVREVTGKQCPDLVSR
B11: DOMAIN_11291 (protein, listed as Suricata suricatta)
chain: SKLPVTFGDLAIYFSQEEWEWLSPIQKDLYEDVMLENYQNLVSLGLSFRRPNVITLLEKGKAPWMVEPVRKRRGLDSKSKC
B12: DOMAIN_11331 (protein, listed as Capra hircus)
chain: PKVPVSFEDVAMYFTKTEWKLLDHRQRKLYKQVMLENYHHLVSLGFSFAKPQLVIQLEQGQKPWVADVHRMRITTGMQAGD
B13: DOMAIN_11332 (protein, listed as Capra hircus)
chain: ARESVMFSDVSIDFSLEEWEFLNLEQRDLYRDVMLENYSNLVSLGCFISKPDVISLLEQGKEPWNVVRKGRRQYPDLETNY
B14: DOMAIN_11356 (protein, listed as Sus scrofa)
chain: AHGSVMFSDVSIDFSQEEWEYLNLEQRDLYRNVMLENYSNLVSLGCFISKPDVISLLEQGKEPWKVVRKGRRPYSGLETKK
B15: DOMAIN_11381 (protein)
chain: MVQESVTFKDVAVLFTQEEWGQLSPAQRALYRDVMLENYSNLVSLGLLGPKPDMFSQLEKREVWMPEDTPGGFCLDWMTMP
modifications: Nomascus leucogenys
B16: DOMAIN_13468 (protein, listed as Phascolarctos cinereus)
chain: PQESVTFKDVAVDFTWEEWGYLDTSQKELYQEVMLENYRNLVSLGFVVAKPDVISQLEQGEAPWRPEGRFPRSRHPDSDTR
B17: DOMAIN_11393 (protein, listed as Suricata suricatta)
chain: RPRAVKFADVAVYFSTEEWGCLRPAQRALYRDVMRETYGHLGALGCAGPKPALISWLERNTDDWEPAALDPQECPKRVTVQ
B18: DOMAIN_11401 (protein, listed as Suricata suricatta)
chain: DQESLTLEDVAVDFSREEWQLLAPAQKDLYRDVMLENYRNLVSLGYQASTPDALCMLERGEGPWATGEAVRGGARPETRKV
B19: DOMAIN_11403 (protein, listed as Suricata suricatta)
chain: KPGVLTFADVAVYFSSEEWGCLRPAQRALYRDVMRETYGHLGALGCAGPKPALISWLERNTDDWEPAALDPQECPKRVTVQ
B20: DOMAIN_11413 (protein, listed as Sus scrofa)
chain: VREPLTFEDVAVNFTQEEWQQLDPAQKTLHRDVMLEIYSHLVSVGCSGIKPDIISKLEHGEDPWIRESELPRWTYSDREKS
B21: DOMAIN_11433 (protein, listed as Neophocaena asiaeorientalis)
chain: PQVLVSFEEVAVLLSQEEWGHLGPDQKRLYRDVMLETYGNLVSLGLQGSKPDVISKLEQGEEPWAPHSPRIEGSWIWRRRR
B22: DOMAIN_11446 (protein)
chain: YQEMVTFEDVAVHFTKTEWTGLSPAQRALYRSVMLENFGNLTALGYPVPKPALISLLEGGDMDWGLEAQDDPPAERTKNVC
modifications: Nomascus leucogenys
B23: DOMAIN_11461 (protein, listed as Equus caballus)
chain: WKELLSFEDVALFFTREEWNQLDWAQKDLYRDVMLENYRNLILLGFQFPKPEVICQLEQWEEPWILDLPRAGTRKASGSAC
B24: DOMAIN_11466 (protein, listed as Suricata suricatta)
chain: AQAPLSFEDVAVGFSPEEWQLLAPAQKDLYRDVMLENYRNLVSLGYQASKPDSLFQLEHGGPPWAVGGAAPRPPCAEEIWE
B25: DOMAIN_11502 (protein, listed as Trichechus manatus)
chain: IHESVTFEDVAVNFTDREWQCLTHAQRHLYKDVMLENYGNMVSLGFPFPKPPLISHLERETEPWVQDLQDRESLSSFYPVS
B26: DOMAIN_11505 (protein, listed as Trichechus manatus)
chain: AHELVMFRDVAIDFSKEEWECLDLEQRDLYRDVMLENYSNMVLLGLCIHQPDMFSLLEKGKEPWKVLRYQTRGPCPDMQSR
B27: DOMAIN_11534 (protein, listed as Sus scrofa)
chain: AQESVMFSDVSIDFSQEEWECLNDDQRALYRDVMLENYSNLVSMGHSISKPDVISFLEQGKEPWLVDRELTRGQWPVLESR

System: HBEGF locus
Assay type: cell-based, human
[1] = repressor domain in dXR, repression of the HBEGF gene, abundance of domain in library after vs before diphtheria toxin selection
[2] = high-throughput screen of dXR repression of the HBEGF gene, change in abundance of each domain in the library before and after diphtheria toxin selection

| Molecule | Log2 (fold change) [1] | Log2 (fold change) [2] |
| --- | --- | --- |
| B1 | 3.5671 |  |
| B2 | 2.6889 |  |
| B3 | 3.2804 |  |
| B4 | 2.4845 |  |
| B5 |  | 3.6926 |
| B6 | 3.5793 |  |
| B7 | 3.606 |  |
| B8 | 2.7556 |  |
| B9 | 3.536 |  |
| B10 | 2.69 |  |
| B11 | 4.0373 |  |
| B12 | 3.0611 |  |
| B13 | 3.0468 |  |
| B14 | 2.6549 |  |
| B15 | 3.1705 |  |
| B16 |  | 4.1548 |
| B17 | 3.4256 |  |
| B18 | 2.6345 |  |
| B19 | 3.4222 |  |
| B20 | 2.1814 |  |
| B21 | 3.3986 |  |
| B22 | 2.6971 |  |
| B23 | 2.508 |  |
| B24 | 3.4716 |  |
| B25 | 3.601 |  |
| B26 | 3.0969 |  |
| B27 | 3.8118 |  |
